# Reference: the supplement of paper PMC10126150
# Sequences with one replicate were seen in a single cluster, so their values are uncertain.
# System: ATP
# Assay: switch fluorescence ratio, 500 uM ATP over buffer (Cy3 cluster intensity, sum of 5 cycles each) (fold (ratio)); higher = stronger signal-on switching upon ATP binding; sequences stand for … in TCGTCGGCAGCGTCAGATGTGTATAAGAGACAGTTTTTTTTTTTTTTTTTTTTTTTTT…TC
# Conditions: aptamer strand: ATP DNA aptamer (quencher-CACCTGGGGGAGTATTGCGGAGGAAGG + anchor), 100 nM annealed; ATP concentration: 500 uM; one replicate
# Summary of the method: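 Switching-strand clusters labelled with Cy3 on a modified Illumina MiSeq flow-cell were annealed to 100 nM quencher-labelled ATP aptamer, imaged in selection buffer, and re-imaged after 15 min with 500 uM ATP at 22 °C. This was done over five cycles with NaOH stripping and re-annealing in between. The fluorescence ratio is summed target-cycle over summed buffer-cycle Cy3 intensity per cluster, averaged per switch-domain sequence, excluding clusters outside 100-1000 RFU.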
# 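Note: ATP exposure 15 min at 22 °C before imaging.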
row,Sequence,switch fluorescence ratio
1,CCCGCTATGG,2.69
2,TATCAGGAAA,0.947
3,AATTATAGCG,1.01
4,CGGTTACTCT,1.05
5,CGCTTGTAAC,1.22
6,AGTGGCTTTC,1.01
7,AGCGAACCCC,1.17
8,CGAGCGGGG,1.02
9,GCAGTTCAGG,1.05
10,AAATTTCCGT,1.06
11,CTAATATGGC,0.955
12,GGATATCGCA,1.05
13,GTGGTTGCTA,0.967
14,TCCAGTGGGC,1.02
15,GTAGCGGGGG,1.01
16,ATGGAAAACT,1.06
17,TCAGGTGTTG,1.41
18,AACGTGAGGT,1.03
19,AAATTCAGAT,1.08
20,TAACCGTATG,1.03
21,GTACCATTAA,1.01
22,ATCGAGGACT,1.01
23,CCTGGTATCA,0.97
24,TAGACATAGT,0.954
25,AGGTGATA,1.03
26,ATTGAGTACC,1.03

row,Sequence,switch fluorescence ratio
1,CAGAAGTACG,1.03
2,ATATCCCGGG,1.04
3,TGGCTTTTGC,0.948
4,TAACCGCGGC,1.11
5,ACCCTGAACG,1.16
6,AAGTGGCCGA,0.968
7,ATTTCGCATT,1.03
8,GTACTAAG,1.06
9,TCTTTGGGT,1.01
10,AGAGGTGCAG,0.994
11,TTAGTAGCTT,1.01
12,GGTTACAGGG,0.957
13,ATTTATAAGC,1.02
14,GATTCGATAT,1.03
15,CAGACCAAGG,1.03
16,ATTATTTAT,1.03
17,TAGGGTCGTC,1
18,CGAATTACTC,2.43
19,ACGCGGCGGT,1.02
20,TCTGTATG,0.981
21,GGTGGGTATC,1.01
22,GCTTACGTAG,0.999
23,CATCGACTTG,1.01
24,AACTTCGTAA,1.46
25,AGCTTGGGAT,1
26,GGGAGTTGCG,1.03

row,Sequence,switch fluorescence ratio
1,ATAACTAGAG,1.06
2,GGACACACTC,1.29
3,TATGATTAAA,1.01
4,TCGAAATTGT,1.01
5,CCGAATCCGG,1.06
6,CTAGTCTTTG,0.981
7,TGAATGGGC,0.977
8,AGACTGATTC,1.01
9,AGCTGCTATT,1.03
10,GGGTAGATAT,0.994
11,GCGATCCTTT,1.02
12,AATTCACTTT,1.02
13,CAGAGGGGCT,0.984
14,TACGTTGGTA,0.964
15,TAAGTTTCTA,0.971
16,GAATGACTCG,1.04
17,CGAACTAAAG,1
18,TTAGCTTTC,1.12
19,CCTGGAGCTT,2.2
20,GTCAAAGTCT,1.02
21,AATTGTCTTC,1.01
22,GATTATCCAA,1.01
23,CAACTTAGAT,0.993
24,TGCTGGATTG,1.02
25,TTTTACCATA,1.07
26,AGGGCTACAC,0.937

row,Sequence,switch fluorescence ratio
1,CGTTATGTTG,0.867
2,CTTGGACAGC,1.1
3,TCGGAAAGTT,1.16
4,CGACGGAAAA,1.06
5,CAATTTCCT,1.09
6,ACACGATTCA,1.03
7,AGAGGGTCAT,0.985
8,CGTCGATGG,0.992
9,GCTGTTCGAC,0.997
10,TCTCTGAAGC,1.16
11,ATGGATATAA,0.987
12,ATGGTGAAAG,1.02
13,TGGTCGCGGC,1.01
14,GGTTGTGCCC,0.956
15,TTAGAAGCTG,1.06
16,TTAGTAATGG,0.925
17,TACGGATGT,1.04
18,ACCGGGTCTA,1
19,CTCCCCTGCT,1.14
20,ATGCGTATGG,1.06
21,ACTAGCTGG,1.03
22,ATGTAATGG,0.99
23,ATCCGAGAGA,1.04
24,ACGTTCCATG,1.02
25,AGAGGTGATC,0.964
26,TTCGGGTTC,0.995

row,Sequence,switch fluorescence ratio
1,TAGGGTCACA,1.02
2,ATATTCTCT,0.987
3,AGCTTTGGTG,1.03
4,GCTGCCAGCG,0.977
5,TTGACTTTGT,1.07
6,GCACATGTTC,0.979
7,TCTAAAAGTT,1.03
8,TAAAGTATCA,1.03
9,TTAAATGC,1.04
10,TCGAGAATAA,0.983
11,CACGTCGTGC,0.971
12,AGGGTTCGTA,0.979
13,GAGAGCATTG,1.01
14,AATAAACTAA,0.973
15,GGGTGTCCGT,1.01
16,GTATCGACTG,1.01
17,CACGAGCCCG,1.06
18,ATTCTCTGAC,1.12
19,TGCTACGCCG,1.13
20,CGTATTAGCA,1.04
21,TTGCGGTATC,1.02
22,CTGTTATGCT,1
23,CCGTCTGCGG,1.02
24,CTCTGGACGC,1.17
25,GGAGGCTATT,1.05
26,TCTGCTGATT,0.997

row,Sequence,switch fluorescence ratio
1,CACTCCTTG,1.03
2,TTTCTCGCCA,1.06
3,TGCTCCATG,0.984
4,AACGTTATAT,1.05
5,ACCTGCGATC,2.88
6,CCTAACCAGG,2.61
7,TTGTAACACT,0.989
8,AAACTGAGTG,1.02
9,TGTGTTTCGC,0.955
10,CAAATCGTGC,1.06
11,TTAAGTGATA,1.03
12,TCCCCAGCAG,4.73
13,TGTCGATACA,1.05
14,GTTCCTCATC,1.12
15,AAGGTAGTAT,1.01
16,CGGTAGCAG,1
17,TGGCCGTAAT,1.13
18,ATCGGGCGTT,0.932
19,ACTAGACCTA,1.09
20,AGAGTATTGA,1.01
21,CTATATATAG,0.986
22,TAGGGCGACC,1.02
23,GTCGAAGAGG,0.946
24,AGCGCGTGAA,1.03
25,AACGGCAGAC,1.52
26,AGTTCGATC,0.948

row,Sequence,switch fluorescence ratio
1,AGTTCTTGAG,0.965
2,TGAAAGACAG,1
3,AAAAGCCACG,1.05
4,CAGGCCGGGC,1.02
5,GTCATTCTGG,0.955
6,TAATATAGTA,0.96
7,AGCGTTAT,1.01
8,AAAGCACCGA,1.11
9,ACGGTCAAAA,0.987
10,TTCGGACTAA,1.01
11,ATTCTTTGAG,1.03
12,AACGTGTGTA,0.997
13,AGCATAGTG,1.03
14,AACCTTGTAC,1.25
15,GTTCCTGTTC,0.995
16,CTGTGCCCAC,1.03
17,TACTCTAATG,1.08
18,ATATTATCGC,1.02
19,TTAATTCAA,0.961
20,AATTGTACGT,1.02
21,CGGTTTATG,0.985
22,ATACTCGTTG,1.01
23,CCCCAATGCC,1.49
24,CCTAGATCCG,1.23
25,TCGTGATACG,1.15
26,CCAATGGCCC,0.989

row,Sequence,switch fluorescence ratio
1,GAAAGAGGTC,1.04
2,ATGCGTCTCT,1.02
3,AGCTCATCCC,1.13
4,CTTATATGTG,0.968
5,CTACATATGT,1
6,ACCTGTGTTT,1.03
7,TATGCATTCA,1.03
8,ATAGGTTGAG,0.98
9,ACCAATATAG,1.06
10,CATTCGCTGT,1.98
11,CCCCAATTGT,1.09
12,TCTTATTACC,1.03
13,AAGAATTTGG,0.932
14,GTGTGAGACT,1.08
15,TAGAAAACGC,0.989
16,CTGCGTCGCG,1.02
17,CTAAGGGCA,0.974
18,CACTGTTCGG,1.04
19,ACCGGTTTG,1.01
